The values below come from a collection of fitness landscapes (doi:10.1038/s41467-024-54723-y).

In all, about 18,000 sequences were measured (“TetR repression strength (sort-seq, GFP reporter)”: median about 0.23, highest 2% from about 0.68 on). This is one part of the list.

This experiment addresses TetR (class B, Tn10) (UniProt P04483). As to the kind of experiment: TetR repression strength (sort-seq, GFP reporter) (relative to tetO2 = 1); higher = stronger repression. The following applies: E. coli. The method, boiled down: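 In LB with 50 µg/mL chloramphenicol, E. coli SIG10-MAX holding a low-copy library with eight randomized operator positions between a constitutive promoter and sfGFP, plus constitutive TetR, grew for 5 h at 37 °C. FACS then sorted 10^6 cells into 13 fluorescence bins for Illumina sequencing of each bin. Repression strength equals the top bin index plus one less the read-weighted mean bin, normalized to the unaltered operator. Values from three independent transformations were averaged when reads were ≥30 in every replicate and the CV was ≤0.5.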
Sequence of UniProt P04483 (P04483 whole entry): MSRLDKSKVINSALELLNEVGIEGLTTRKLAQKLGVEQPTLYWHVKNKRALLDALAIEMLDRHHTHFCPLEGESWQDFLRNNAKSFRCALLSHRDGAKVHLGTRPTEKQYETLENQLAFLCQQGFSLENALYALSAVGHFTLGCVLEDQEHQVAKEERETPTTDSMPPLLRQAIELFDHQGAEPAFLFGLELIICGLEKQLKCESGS
TCCCTTGAAGTGAGGGAGA registered a TetR repression strength of 0.118.

Turning to TCCCGTATAGTTGAAGAGA, the TetR repression strength is 0.0792.

Sequence TCCCCGTAAGTTATGGAGA gave a TetR repression strength of 0.259.

Sequence TCCCTCCCAGTCGCGGAGA came in with a TetR repression strength of 0.291.

On to TCCCTAAAAGTTCTCGAGA, for which the TetR repression strength worked out at 0.375.

In the case of TCCCATCAAGTCCTTGAGA, the TetR repression strength came out at 0.325.

In turn, TCCCAATGAGTGGGGGAGA displayed a TetR repression strength of 0.227.

In turn, TCCCTTGGAGTCTTGGAGA displayed a TetR repression strength of 0.265.

Consider TCCCCGAGAGTGCGTGAGA, for which the TetR repression strength was determined as 0.415.

For the sequence TCCCGCCTAGTCAGGGAGA, the TetR repression strength is 0.0997.

Sequence TCCCTGTTAGTTCTTGAGA yielded a TetR repression strength of 0.212.

Consider TCCCAGATAGTTTCAGAGA, for which the TetR repression strength turned out to be 0.307.

Regarding TCCCGCTAAGTGACGGAGA, the TetR repression strength is 0.257.

TCCCGTCGAGTAGCTGAGA registered a TetR repression strength of 0.186.

Take TCCCCGTCAGTGCGAGAGA: the TetR repression strength came to 0.69.

Take TCCCTAGTAGTTATGGAGA: the TetR repression strength worked out at 0.136.

As to TCCCAGTGAGTCGGTGAGA, the TetR repression strength turned out to be 0.0633.

For the sequence TCCCTACAAGTCAGGGAGA, the TetR repression strength was 0.295.

Sequence TCCCGGGTAGTTCGGGAGA had a TetR repression strength of 0.723.

TCCCGTTAAGTCTTGGAGA yielded a TetR repression strength of 0.302.

As for TCCCGTCAAGTGGCAGAGA, the TetR repression strength turned out to be 0.318.

Sequence TCCCCGACAGTACAGGAGA had a TetR repression strength of 0.29.

As for TCCCGCTCAGTGATTGAGA, the TetR repression strength was 0.43.

On to TCCCGACGAGTCTTTGAGA, for which the TetR repression strength amounted to 0.366.

The sequence TCCCCGAAAGTTGTGGAGA gave a TetR repression strength of 0.217.

For TCCCGGGGAGTCCTGGAGA, the TetR repression strength came to 0.115.

Turning to TCCCGTGGAGTGAAAGAGA, the TetR repression strength was found to be 0.237.

The sequence TCCCAAAGAGTTGGAGAGA showed a TetR repression strength of 0.17.

TCCCTTGTAGTCTAAGAGA gave a TetR repression strength of 0.00732.

TCCCTGCTAGTTCCCGAGA: the TetR repression strength came out at 0.449.

TCCCCGGCAGTTACTGAGA gave a TetR repression strength of 0.415.

The sequence TCCCGGCCAGTAAGGGAGA displayed a TetR repression strength of 0.261.

As for TCCCGTGCAGTCCGGGAGA, the TetR repression strength amounted to 0.236.

TCCCGGGCAGTGAAAGAGA gave a TetR repression strength of 0.322.

For TCCCGCGCAGTGAATGAGA, the TetR repression strength was 0.214.

In the case of TCCCCATGAGTTAGCGAGA, the TetR repression strength was 0.188.

TCCCATGGAGTTGCTGAGA gave a TetR repression strength of 0.203.

Consider TCCCCTCGAGTAAGCGAGA, for which the TetR repression strength stood at 0.383.

TCCCGTTTAGTCTTAGAGA displayed a TetR repression strength of 0.334.

Sequence TCCCATCTAGTAGGGGAGA yielded a TetR repression strength of 0.0156.

TCCCTTGGAGTACGGGAGA gave a TetR repression strength of 0.0347.

For the sequence TCCCTCAGAGTGAGTGAGA, the TetR repression strength was 0.173.

On to TCCCAGGTAGTCTCTGAGA, for which the TetR repression strength came to 0.232.

Take TCCCGCAAAGTGCGCGAGA: the TetR repression strength stood at 0.261.

TCCCTTGTAGTGAATGAGA showed a TetR repression strength of 0.277.

Turning to TCCCTGCCAGTTGCGGAGA, the TetR repression strength worked out at 0.353.

Take TCCCGATAAGTCGTCGAGA: the TetR repression strength turned out to be 0.0276.

TCCCTGGGAGTTGGCGAGA: the TetR repression strength was 0.0578.

In turn, TCCCGACTAGTCCGTGAGA yielded a TetR repression strength of 0.229.

TCCCCTTGAGTTGTTGAGA came in with a TetR repression strength of 0.207.

On to TCCCTCATAGTGTCAGAGA, for which the TetR repression strength was found to be 0.178.

In the case of TCCCACGGAGTGGGGGAGA, the TetR repression strength is 0.232.

In turn, TCCCAACAAGTGCGGGAGA came in with a TetR repression strength of 0.659.

TCCCGAGCAGTTAGGGAGA: the TetR repression strength worked out at 0.242.

In turn, TCCCTTCGAGTAAAGGAGA displayed a TetR repression strength of 0.321.

Sequence TCCCGGAGAGTTGCAGAGA yielded a TetR repression strength of 0.207.

Take TCCCGATAAGTAGTGGAGA: the TetR repression strength was 0.376.

For the sequence TCCCCGGGAGTTAGGGAGA, the TetR repression strength worked out at 0.123.

For the sequence TCCCGCATAGTAGAGGAGA, the TetR repression strength was determined as 0.556.

Take TCCCGGCGAGTCGAAGAGA: the TetR repression strength is 0.244.

The sequence TCCCGGGAAGTATTCGAGA yielded a TetR repression strength of 0.391.

Take TCCCTCGTAGTGTAGGAGA: the TetR repression strength was 0.171.

TCCCAATTAGTTTAGGAGA gave a TetR repression strength of 0.259.

Turning to TCCCGCGGAGTCATAGAGA, the TetR repression strength was 0.299.

Take TCCCCGGAAGTGCCTGAGA: the TetR repression strength is 0.276.

For the sequence TCCCGACAAGTCTATGAGA, the TetR repression strength was determined as 0.295.

The sequence TCCCCATCAGTTGGGGAGA yielded a TetR repression strength of 0.263.

In the case of TCCCCTTAAGTGCGGGAGA, the TetR repression strength came to 0.159.

For the sequence TCCCAGGTAGTCGGGGAGA, the TetR repression strength worked out at 0.295.

On to TCCCCTGGAGTGCTAGAGA, for which the TetR repression strength turned out to be 0.209.

As for TCCCGCTCAGTCAGCGAGA, the TetR repression strength turned out to be 0.388.

As for TCCCGCCGAGTACGCGAGA, the TetR repression strength was found to be 0.104.

As to TCCCTAGAAGTAATTGAGA, the TetR repression strength came out at 0.287.

The sequence TCCCACATAGTAAGAGAGA returned a TetR repression strength of 0.265.

Turning to TCCCGCGAAGTCGTGGAGA, the TetR repression strength came to 0.0576.

TCCCAATGAGTTAACGAGA showed a TetR repression strength of 0.259.

For TCCCTTTGAGTATTTGAGA, the TetR repression strength turned out to be 0.415.

With TCCCCTCTAGTAGGTGAGA, the TetR repression strength worked out at 0.12.

With TCCCGCCGAGTTCGGGAGA, the TetR repression strength was determined as 0.203.

Turning to TCCCTTCCAGTATGGGAGA, the TetR repression strength amounted to 0.185.

For TCCCAGCCAGTTGGCGAGA, the TetR repression strength is 0.171.

The sequence TCCCTGTTAGTAGTGGAGA registered a TetR repression strength of 0.236.

Consider TCCCGGTCAGTAGAGGAGA, for which the TetR repression strength amounted to 0.248.

Regarding TCCCTGTGAGTGGATGAGA, the TetR repression strength came to 0.117.

For TCCCATAGAGTAATAGAGA, the TetR repression strength is 0.198.

Turning to TCCCCCTTAGTGAAAGAGA, the TetR repression strength worked out at 0.397.

TCCCGGTCAGTATCGGAGA displayed a TetR repression strength of 0.238.

As to TCCCCGCTAGTGCAAGAGA, the TetR repression strength is 0.376.

TCCCTCGGAGTGTGCGAGA: the TetR repression strength came out at 0.09.

For the sequence TCCCTTTGAGTTTTCGAGA, the TetR repression strength is 0.304.

With TCCCTAGGAGTTGATGAGA, the TetR repression strength is 0.0259.

On to TCCCACTTAGTAGCGGAGA, for which the TetR repression strength was determined as 0.271.

In the case of TCCCCCTCAGTCAGGGAGA, the TetR repression strength came out at 0.179.

As for TCCCTCTAAGTAGGGGAGA, the TetR repression strength came out at 0.334.

Turning to TCCCAGCAAGTCCATGAGA, the TetR repression strength came out at 0.23.

TCCCCGTCAGTGGCGGAGA had a TetR repression strength of 0.143.

As to TCCCCAGTAGTCCGCGAGA, the TetR repression strength was found to be 0.207.

As to TCCCCGTGAGTGGAGGAGA, the TetR repression strength was 0.234.

TCCCCGCAAGTCCGGGAGA: the TetR repression strength turned out to be 0.25.

Take TCCCGATCAGTGGTCGAGA: the TetR repression strength was 0.212.

Take TCCCGATCAGTAGGAGAGA: the TetR repression strength turned out to be 0.167.

In turn, TCCCCATCAGTGGCGGAGA registered a TetR repression strength of 0.258.

As for TCCCACGAAGTGCGTGAGA, the TetR repression strength stood at 0.185.

TCCCCATCAGTCGCTGAGA: the TetR repression strength was 0.0264.

TCCCTATCAGTGTTAGAGA came in with a TetR repression strength of 0.974.

TCCCAGCGAGTGGCGGAGA displayed a TetR repression strength of 0.289.

In turn, TCCCACGGAGTTTAGGAGA returned a TetR repression strength of 0.51.

Regarding TCCCGTGAAGTTGTCGAGA, the TetR repression strength is 0.127.

TCCCAGGGAGTATGAGAGA yielded a TetR repression strength of 0.269.

Take TCCCGGGAAGTGCCGGAGA: the TetR repression strength turned out to be 0.127.

On to TCCCCTAAAGTGTTGGAGA, for which the TetR repression strength was 0.14.

The sequence TCCCCAACAGTATCCGAGA gave a TetR repression strength of 0.572.

For TCCCAAATAGTCAGAGAGA, the TetR repression strength amounted to 0.225.

As for TCCCATGAAGTTATTGAGA, the TetR repression strength amounted to 0.104.

Turning to TCCCTGTGAGTGTCCGAGA, the TetR repression strength worked out at 0.484.

As for TCCCCACGAGTTATTGAGA, the TetR repression strength came to 0.361.

As for TCCCTACTAGTCGTTGAGA, the TetR repression strength amounted to 0.545.

Turning to TCCCCAGGAGTGGCAGAGA, the TetR repression strength is 0.248.

Turning to TCCCCTTGAGTCTGCGAGA, the TetR repression strength amounted to 0.45.

Regarding TCCCACTCAGTGTCTGAGA, the TetR repression strength is 0.267.

On to TCCCGACCAGTGTAGGAGA, for which the TetR repression strength turned out to be 0.397.

As to TCCCACGTAGTAGGTGAGA, the TetR repression strength stood at 0.201.

TCCCCGCGAGTTAAGGAGA displayed a TetR repression strength of 0.61.

In the case of TCCCCCCTAGTGTAGGAGA, the TetR repression strength amounted to 0.0465.

The sequence TCCCCGTTAGTCTGGGAGA showed a TetR repression strength of 0.238.

TCCCTAGGAGTTTTTGAGA returned a TetR repression strength of 0.313.

TCCCCCGAAGTTAAGGAGA gave a TetR repression strength of 0.155.

TCCCGGAGAGTGGCTGAGA had a TetR repression strength of 0.191.

With TCCCGTTAAGTGCGTGAGA, the TetR repression strength came to 0.329.

Take TCCCTGTTAGTCCTTGAGA: the TetR repression strength was 0.316.
